{"source": "paper PMC9520037", "about": "(The Journal of Biological Chemistry, 2022)", "target": "T1, MAP2c-1-467 with N-terminal histidine tag (H6-MAP2c) (rat, UniProt P15146-3 1-467, RED-tris-NTA fluorescent label on the histidine tag)", "T1 sequence": "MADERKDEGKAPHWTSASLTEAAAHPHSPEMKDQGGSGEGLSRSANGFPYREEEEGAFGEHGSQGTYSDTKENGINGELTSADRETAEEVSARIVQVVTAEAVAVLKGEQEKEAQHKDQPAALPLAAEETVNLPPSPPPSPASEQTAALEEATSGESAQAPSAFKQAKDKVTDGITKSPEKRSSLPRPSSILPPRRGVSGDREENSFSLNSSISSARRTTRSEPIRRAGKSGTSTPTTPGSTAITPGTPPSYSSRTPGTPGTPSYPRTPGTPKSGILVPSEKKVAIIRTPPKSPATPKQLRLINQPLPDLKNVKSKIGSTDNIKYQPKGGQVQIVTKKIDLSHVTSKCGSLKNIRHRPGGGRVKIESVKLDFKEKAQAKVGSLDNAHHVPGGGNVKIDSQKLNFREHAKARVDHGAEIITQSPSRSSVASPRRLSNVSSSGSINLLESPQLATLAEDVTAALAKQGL", "assay": "MST", "data": [{"binder": "SH3 domain of human Abl fused to GST (GST-Abl-SH3) (domain or fragment) not shown", "values": [{"measurement": "Kd", "value": "68 ± 10", "unit": "µM"}]}]}
